The list shows a part of the results. The full chains were built here from the parent and the listed change. Values near 0.05 are background.
B1: TEV protease; numbered along this chain (parent)
chain: MGESLFKGPRDYNPISSSICHLTNESDGHTTSLYGIGFGPFIITNKHLFRRNNGTLVVQSLHGVFKVKDTTTLQQHLVDGRDMIIIRMPKDFPPFPQKLKFREPQREERICLVTTNFQTKSMSSMVSDTSCTFPSGDGIFWKHWIQTKDGQCGSPLVSTRDGFIVGIHSASNFTNTNNYFTSVPKNFMELLTNQEAQQWVSGWRLNADSVLWGGHKVFMVKPEEPFQPVKEATQL

Variants of: B1
Test: raw area under fraction-flipped curve 0-4 h after induction (AUC4h, not background-subtracted), DNA-recorder readout of cleavage of the substrate (dimensionless); higher = more cleavage of the substrate by the protease variant
Settings: temperature: 34 °C; time window: 0-4 h after rhamnose induction
Method: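 In vivo DNA recorder in E. coli TOP10(DE3) ΔrhaA at 34 °C. Each TEVp single-site mutant (parent TEVp 0) is paired with a single-site variant of the 7-mer TEVs (canonical ENLYFQ|S). The substrate sits between flexible linkers in a Bxb1-sfGFP-TEVs-SsrA fusion, so cleavage stabilises Bxb1 and speeds flipping of a recombination array, read by NGS. The value is the raw area under the fraction-flipped curve over 0-4 h after rhamnose induction (AUC4h), with ≥20 reads per time point. It is not background-subtracted; inactive controls average about 0.047.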
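Also: Bxb1 expression induced with 0.2% (w/v) L-rhamnose at OD600 near 0.5, cultures sampled hourly, flipped fraction per protease–substrate barcode pair counted by paired-end Illumina sequencing.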

Variant | area with substrate ENLYCQS | area with substrate ENLYDQS | area with substrate ENLYEQS | area with substrate ENLYGQS | area with substrate ENLYHQS | area with substrate ENLYKQS | area with substrate ENLYMQS | area with substrate ENLYNQS | area with substrate ENLYPQS | area with substrate ENLYQQS | area with substrate ENLYRQS | area with substrate ENLYSQS | area with substrate ENLYTQS | area with substrate ENLYVQS | area with substrate ENLYWQS | area with substrate ENLYIQS | area with substrate ENLYLQS | area with substrate ENLYYQS
MGESLFKGPRDYNPISSSICHLTNESDGHTTSLYGIGFGPFIITNKHLFRRNNGTLVVQSLHGVFKVKDTTTLQQHLVDGRDMIIIRMPKDFPPFPQKLKFREPQREERICLVTTNFQTKSMSSMVSDTSCTFPSGDGIFWKHWIQTKDGQCGSPLVSTRDGFIVGIHSASNFTNTNNYFTSVPKNFMELLTNQEAQQWVSGWRLNNDSVLWGGHKVFMVKPEEPFQPVKEATQL [A207N] | 0.0867 | 0.0624 | 0.0533 | 0.065 | 0.0671 | 0.0609 | 0.103 | 0.0579 | 0.0732 | 0.0657 | 0.0597 | 0.0697 | 0.118 | 0.114 | 0.0692 | – | – | –
MGESLFKGPRDYNPISSSICHLTNESDGHTTSLYGIGFGPFIITNKHLFRRNNGTLVVQSLHGVFKVKDTTTLQQHLVDGRDMIIIRMPKDFPPFPQKLKFREPQREERICLVTTNFQTKSMSSMVSDTSCTFPSGDGIFWKHWIQTKDGQCGSPLVSTRDGFIVGIHSASNFTNTNNYFTSVPKNFMELLTNQEAQQWVSHWRLNADSVLWGGHKVFMVKPEEPFQPVKEATQL [G202H] | 0.0737 | – | 0.0593 | 0.0685 | 0.0559 | – | 0.062 | 0.0618 | – | 0.0557 | 0.06 | 0.0687 | – | 0.0657 | 0.0697 | 0.0752 | 0.0601 | 0.052
MGESLFKGPRDYNPISSSICHLTNESDGHTTSLYGIGFGPFIITNKHLFRRNNGTLVVQSLHGVFKVKDTTTLQQHLVDGRDMIIIRMPKDFPPFPQKLKFREPQREERICLVTTNFQTKSMSSMVSDTSCTFPSGDGIFWKHWIQTKDGQCGSPLVSTRDGFIVGIHSASNFTNTNNYFTSVPKNFMELGTNQEAQQWVSGWRLNADSVLWGGHKVFMVKPEEPFQPVKEATQL [L191G] | 0.0682 | 0.0359 | 0.0642 | 0.0506 | 0.0594 | 0.0418 | 0.051 | 0.0549 | – | 0.0574 | 0.046 | – | 0.0525 | 0.0496 | 0.0631 | 0.0667 | – | 0.0701
MGESLFKGPRDYNPISSSICHLTNESDGHTTSLYGIGFGPFIITNKHLFRRNNGTLVVQSLHGVFKVKDTTTLQQHLVDGRDMIIIRMPKDFPPFPQKLKFREPQREERICLVTTNFQTKSMSSMVSDTSCTFPSGDGIFWKHWIQTKDGQCGSPLVSTRDGFIVGIHSASNFTNTNNYFTSVPKNFMELLTNQEAQQWVAGWRLNADSVLWGGHKVFMVKPEEPFQPVKEATQL [S201A] | 0.0817 | 0.0665 | 0.0582 | 0.0642 | – | – | 0.0727 | – | 0.0614 | – | 0.0606 | 0.0648 | – | 0.0986 | 0.0788 | 0.102 | – | –
MGESLFKGPRDYNPISSSICHLTNESDGHTTSLYGIGFGPFIITNKHLFRRNNGTLVVQSLHGVFKVKDTTTLQQHLVDGRDMIIIRMPKDFPPFPQKLKFREPQREERICLVTTNFQTKSMSSMVSDTSCTFPSGDGIFWKHWIQTKDGQCGSPLVSTRDGFIVGIHSASNFTNTNNKFTSVPKNFMELLTNQEAQQWVSGWRLNADSVLWGGHKVFMVKPEEPFQPVKEATQL [Y179K] | 0.0803 | – | 0.0573 | – | – | – | – | – | – | – | 0.0581 | 0.0777 | – | – | – | 0.0647 | – | –
MGESLFKGPRDYNPISSSICHLTNESDGHTTSLYGIGFGPFIITNKHLFRRNNGTLVVQSLHGVFKVKDTTTLQQHLVDGRDMIIIRMPKDFPPFPQKLKFREPQREERICLVTTNFQTKSMSSMVSDTSCTFPSGDGIFWKHWIQTKDGQCGSPLVSTRDGFIVGIHSASNFTNTNNYFTSVPKNFMELLTNQEAQWWVSGWRLNADSVLWGGHKVFMVKPEEPFQPVKEATQL [Q198W] | 0.0867 | 0.0605 | 0.108 | 0.0585 | 0.071 | 0.0402 | 0.0644 | – | – | 0.06 | 0.0575 | – | – | 0.0697 | – | 0.115 | 0.0769 | 0.0635
MGESLFKGPRDYNPISSSICHLTNESDGHTTSLYGIGFGPFIITNKHLFRRNNGTLVVQSLHGVFKVKDTTTLQQHLVDGRDMIIIRMPKDFPPFPQKLKFREPQREERICLVTTNFQTKSMSSMVSDTSCTFPSGDGIFWKHWIQTKDGQCGSPLVSTRDGFIVGIHSAVNFTNTNNYFTSVPKNFMELLTNQEAQQWVSGWRLNADSVLWGGHKVFMVKPEEPFQPVKEATQL [S171V] | 0.0951 | – | 0.0691 | – | 0.0701 | 0.0679 | 0.0152 | 0.0337 | 0.0639 | – | 0.0635 | 0.0926 | – | 0.0522 | 0.0407 | 0.08 | – | 0.0555
MGESLFKGPRDYNPISSSICHLTNESDGHTTSLYGIGFGPFIITNKHLFRRNNGTLVVQSLHGVFKVKDTTTLQQHLVDGRDMIIIRMPKDFPPFPQKLKFREPQREERICLVTTNFQTKSMSSMVSDTSCTFPSGDGIFWKHWIQTKDGQCGSPLVSTRDGFIVGIHSASNFTNTNNYFTSVPKNFEELLTNQEAQQWVSGWRLNADSVLWGGHKVFMVKPEEPFQPVKEATQL [M188E] | 0.0896 | 0.0649 | 0.0635 | 0.0587 | 0.0626 | – | – | 0.0639 | – | 0.0719 | – | 0.0827 | – | 0.123 | 0.0799 | 0.143 | – | 0.075
MGESLFKGPRDYNPISSSICHLTNESDGHTTSLYGIGFGPFIITNKHLFRRNNGTLVVQSLHGVFKVKDTTTLQQHLVDGRDMIIIRMPKDFPPFPQKLKFREPQREERICLVTTNFQTKSMSSMVSDTSCTFPSGDGIFWKHWIQTKDGQCGSPLVSTRDSFIVGIHSASNFTNTNNYFTSVPKNFMELLTNQEAQQWVSGWRLNADSVLWGGHKVFMVKPEEPFQPVKEATQL [G162S] | 0.107 | 0.0652 | 0.0542 | 0.0595 | 0.072 | 0.0619 | – | 0.0616 | 0.0712 | – | 0.0522 | 0.0696 | – | 0.104 | 0.0761 | – | – | –

Reference: the supplement of paper PMC12217912
